Usually inhibition stands for the relative decrease from the control value, in per cent.

Screen size: about 340,000 compounds; about 6,900 (2%) were called active. No stated cut-off is given here; in the data, active means inhibition above about 30%; inactive means below that, where a call was filed. The list shows a part of the results, in another mix than the full data. Where no call is shown, the source filed none.

Data on 97 molecules can be found in PubChem BioAssay AID485344 (National Center for Advancing Translational Sciences (NCATS), 2010).

This assay addresses D(2) dopamine receptor (Homo sapiens) (UniProt P14416). As to the kind of experiment: HTS Assay for Allosteric Antagonists of the Human D2 Dopamine Receptor: Primary Screen for Antagonists. Further: 0% is about no effect. As to conditions: HEK293 TREx D2 cells, calcium flux, dopamine EC80; at 10 µM; stronger effect = higher value. The essentials: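 In this primary screen, negative modulation is detected by tracking calcium flux after an EC80 dopamine challenge in inducible HEK293 T-REx D2 cells preexposed to test compound for 180 s.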
Chain of UniProt P14416 (P14416 whole entry, looked up): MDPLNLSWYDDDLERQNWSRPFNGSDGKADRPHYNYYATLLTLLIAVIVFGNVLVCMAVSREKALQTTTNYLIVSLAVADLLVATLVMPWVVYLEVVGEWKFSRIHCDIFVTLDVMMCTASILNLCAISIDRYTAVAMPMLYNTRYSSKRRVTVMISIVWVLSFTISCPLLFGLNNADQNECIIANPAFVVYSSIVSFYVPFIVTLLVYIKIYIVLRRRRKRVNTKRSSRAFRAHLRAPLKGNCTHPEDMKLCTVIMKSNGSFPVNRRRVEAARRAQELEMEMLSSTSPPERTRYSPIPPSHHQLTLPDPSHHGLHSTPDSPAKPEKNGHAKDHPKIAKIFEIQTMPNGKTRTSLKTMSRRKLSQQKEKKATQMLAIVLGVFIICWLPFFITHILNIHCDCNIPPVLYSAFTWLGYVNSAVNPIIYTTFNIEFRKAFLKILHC
For orientation: Calcium flux is commonly read through the fluorescence of an indicator in the cells.
For the molecule `COc1ccc(C)cc1NC(=O)C1CCN(S(=O)(=O)c2ccc3[nH]c(=O)oc3c2)CC1`, the inhibition amounted to 12.7%.

Take `O=C(NCc1ccccc1)C1CCCN(S(=O)(=O)c2cccc3nsnc23)C1` (configuration not stated): the inhibition is -0.657%.

As for `O=C1CN(C(=O)COc2ccc(Cl)cc2)C(c2ccccc2)c2cc(Br)ccc2N1` (configuration not stated), the inhibition was 11.4%.

As for `CCOc1ccc(NC(=O)CN2C(=O)CC(C)Sc3ccccc32)cc1` (configuration not stated), the inhibition amounted to 11%.

In the case of `CCn1cc2nc(SCC(=O)Nc3ccc(OC)c(OC)c3)n(Cc3ccc(Cl)cc3)c(=O)c2n1`, the inhibition was found to be 17%.

Turning to `Cc1cn2c(=O)cc(COC(=O)c3cccc(NC(=O)c4ccc(C(C)(C)C)cc4)c3)nc2s1`, the inhibition amounted to 8.43%.

With `CC(=O)c1cccc(NC(=O)C2CCN(C(=O)c3cnn(-c4ccccc4)c3-n3cccc3)CC2)c1`, the inhibition worked out at 18.9%.

On to `COc1ccc(-c2oc3ncn4nc(-c5ccccc5O)nc4c3c2-c2ccc(OC)cc2)cc1`, for which the inhibition is -8.74%.

`CCOc1ccc(-n2c(/C=C/c3cccc(F)c3)nc3cc(OC)c(OC)cc3c2=O)cc1`: the inhibition was -3.78%.

`COc1ccc(-c2cc(-c3ccc(F)cc3)nc3c2COc2ccc(F)cc2-3)cc1`: the inhibition is 3.57%.

As to `O=C(O)c1ccc2nc3c(nc2c1)-c1ccccc1C3=O`, the inhibition was active: 34.1%.

As to `Cc1ccccc1-c1nc2scc(CCNS(=O)(=O)c3ccccc3)n2n1`, the inhibition is 5.89%.

Take `Cc1nn2c(=O)cc(COC(=O)c3cccc(NC(=O)CCc4ccccc4)c3)nc2s1`: the inhibition turned out to be 21.8%.

As for `CCCCC(=O)NCc1nc2cccnc2n1Cc1ccc(OC)cc1`, the inhibition is -15.8%.

Take `COc1cccc(Nc2ccc3cc(S(=O)(=O)N4CCC(C)CC4)ccc3n2)c1`: the inhibition was -3.42%.

With `CCOC(=O)c1ccc(N2CCN(c3cc(C)ccc3C)CC2)c(NC(=O)Nc2ccc(CC)cc2)c1`, the inhibition was -1.74%.

As for `CCCOc1cccc(C(=O)Nc2cccc(-c3nc4ncccc4o3)c2C)c1`, the inhibition was found to be 12.5%.

For the molecule `CC1(C)CC(=O)C2=C(C1)N1C(=C(C#N)C2c2ccccc2Cl)N=C(N)c2ccccc21` (configuration not stated), the inhibition was active: 35.8%.

Regarding `CCOC(=O)COc1ccc(CC)cc1C(=O)c1ccn2nc(-c3ccccc3)cc2n1`, the inhibition is -19.2%.

As to `COc1ccccc1C1CCN(Cc2ccc(Cl)c(Cl)c2)CC1`, the inhibition was active: 83.7%.

In the case of `Cc1ccc(Cl)cc1N1CCN(C(=O)c2ccc(NC(=O)c3nsc4ccccc34)cc2)CC1`, the inhibition is 10.8%.

Consider `COC(=O)C(Cc1c[nH]c2ccccc12)NC(=O)COc1cccc(C)c1` (configuration not stated), for which the inhibition worked out at 7.01%.

On to `COC(=O)c1sccc1S(=O)(=O)N1CCN(c2cc(Cl)ccc2C)CC1`, for which the inhibition was determined as 14.1%.

With `Cc1nn(S(=O)(=O)c2ccc(C(C)(C)C)cc2)c(C)c1S(=O)(=O)N1CCCCCC1`, the inhibition was found to be 0.754%.

Consider `Cc1ccc(-c2n[nH]c3c2C(c2ccc(C(C)(C)C)cc2)NC3=O)cc1` (configuration not stated), for which the inhibition was determined as 20%.

Turning to `COCCNC(=O)CCn1c(=O)c2cc(OC)c(OC)cc2n(CC(=O)Nc2ccc(Cl)cc2F)c1=O`, the inhibition was -14.3%.

Consider `Cc1ccc(NC(=O)c2oc3ccc(S(=O)(=O)N4CCC5(CC4)OCCO5)cc3c2C)cc1C`, for which the inhibition is -27.2%.

For `Cc1ccc(OCC(=O)Nc2cccc(-c3nc4ccccc4s3)c2)cc1`, the inhibition was -11.8%.

Consider `CCOc1ccc(NC(=O)C2CC(=O)NC(=Nc3ccc(Cl)c(Cl)c3)S2)cc1` (configuration not stated), for which the inhibition is -5.27%.

With `Cc1c(C(=O)NCc2ccccc2)sc2nc3n(c(=O)c12)CCCCC3`, the inhibition came out at 5.16%.

In the case of `COc1cccc(CNC(=O)c2sc3nc(C)cc(C)c3c2-n2cccc2)c1OC`, the inhibition is -8.65%.

`CCOC(=O)c1ccc(NC(=O)C2CCCN(c3ncnc4onc(-c5ccc(F)cc5)c34)C2)cc1` (configuration not stated): the inhibition is -12%.

For `COc1cccc(/C=C/c2nc(C#N)c(NCCc3ccccc3)o2)c1`, the inhibition was -21.6%.

Take `COc1ccccc1CCC(=O)OCC(=O)Nc1cc(S(=O)(=O)N2CCOCC2)ccc1C`: the inhibition was active: 33%.

As to `Clc1cccc(N2CCN(c3nc4ccccc4n4nnnc34)CC2)c1`, the inhibition is 7.5%.

As for `COc1ccc(C(=O)Nc2ccc3oc(-c4cccnc4)nc3c2)cc1`, the inhibition is 9.51%.

On to `COc1ccccc1-c1nc(SCC(=O)NCc2ccc(C)cc2)c2c(=O)n(C)c(=O)n(C)c2n1`, for which the inhibition came to 10.5%.

For the molecule `Cc1ccc(NC(=O)CNC2CCCCC2)cc1Cl`, the inhibition was active: 30.3%.

In the case of `Cc1cccc(CN2C(=O)N(c3ccc(C(C)C)cc3)S(=O)(=O)c3ccccc32)c1`, the inhibition is 6.49%.

As to `O=C(COc1ccccc1F)Nc1ccc2oc(-c3cccc(Cl)c3)nc2c1`, the inhibition is 2.9%.

Consider `Cc1ccc(-c2ccc(=O)n(CC(=O)Nc3ccc(C)cc3Cl)n2)cc1`, for which the inhibition was determined as 8.57%.

In the case of `Cc1cc(=O)[nH]c2nnc(SCc3ccc(F)cc3)n12`, the inhibition is -3.85%.

With `O=C(CC(c1cccs1)N1Cc2ccccc2C1=O)Nc1ccc(F)c(F)c1` (configuration not stated), the inhibition was -17.6%.

Turning to `COc1ccc(N2C(=O)CS(=O)(=O)C23C(=O)N(Cc2cccc(F)c2)c2ccccc23)cc1OC` (configuration not stated), the inhibition was found to be 4.78%.

On to `COc1ccc(Cn2c(SCC(=O)NCc3ccc(Cl)cc3)nc3ccsc3c2=O)cc1`, for which the inhibition is -7.7%.

Regarding `CCOC(=O)c1ccc(-n2c(CCC(=O)O)ccc2-c2ccc(Br)cc2)cc1`, the inhibition was -13.4%.

Take `O=C(NCc1cccs1)c1ccc(Cn2c(SCc3ccccc3)nc3cccnc32)cc1`: the inhibition was found to be 13.1%.

`O=C(Nc1c(C(=O)N2CCN(c3ccccc3)CC2)oc2ccccc12)c1ccc(Br)o1`: the inhibition is -9.77%.

On to `Fc1ccccc1Cn1cnc(NC(=S)NCCc2ccccc2)n1`, for which the inhibition was active: 40.1%.

For `Cc1cc(Cl)ccc1OCC(=O)Nc1c(Cl)ccc2nsnc12`, the inhibition stood at 19.5%.

As to `Cc1nn2c(=O)cc(COC(=O)c3ccco3)nc2s1`, the inhibition is -5.4%.

Regarding `COc1cccc(CNCCSc2nnnn2C)c1OCc1ccccc1Cl`, the inhibition is 16%.

Consider `COc1cccc(CNS(=O)(=O)c2ccc3c(c2)CCN3C(=O)C2CCC2)c1`, for which the inhibition amounted to 4.81%.

Turning to `O=C(c1ccco1)n1nc(-c2ccccc2)nc1NCc1ccc(Cl)cc1`, the inhibition stood at 5.1%.

As for `Cc1nn(-c2ccccc2)c2c1N(CCCC(=O)NCc1ccc(N(C)C)cc1)C(=O)CS2`, the inhibition came out at 1.63%.

In the case of `CCc1ccc(NCc2cc3ccc(OC)cc3n(CC(=O)Nc3ccc(F)cc3F)c2=O)cc1`, the inhibition stood at 16.5%.

Take `CCC(=O)N1c2ccccc2CC1C(=O)N1CCN(c2cccc(Cl)c2)CC1` (configuration not stated): the inhibition was 1.11%.

As for `CCC(=O)N1CCc2cc(S(=O)(=O)CCC(=O)Nc3ccc(OC(F)(F)F)cc3)ccc21`, the inhibition was -2.4%.

As for `COc1ccc(CC(=O)Nc2sc3c(c2C(=O)Nc2cccc(Cl)c2)CCCCC3)cc1`, the inhibition was -5.09%.

As for `CC(C)Oc1ccc(CNC(=O)CCCN2C(=O)CCn3nc(-c4cccn4C)cc32)cc1`, the inhibition came to 2.62%.

On to `COc1ccccc1N1CCN(C(=O)C(CCSC)NS(=O)(=O)c2ccc3c(c2)oc(=O)n3C)CC1` (configuration not stated), for which the inhibition turned out to be 14.8%.

`Cc1ccc(C)c(OCCC(=O)NNC(=O)c2ccncc2)c1`: the inhibition was active: 43.4%.

Regarding `COC(=O)CSc1ncc2c(n1)-c1ccccc1N(Cc1ccccc1C)S2(=O)=O`, the inhibition was -3.61%.

For the molecule `Cc1cccc(-c2nc(C)c(CCNC(=O)C(=O)Nc3cccc(Cl)c3C)s2)c1`, the inhibition is -16.9%.

With `O=C(Cn1cc(SCc2ccc(C(F)(F)F)cc2)c2ccccc21)N1CCOCC1`, the inhibition is -10.2%.

Turning to `O=C(NCc1ccccc1)c1cc2sccc2n1Cc1ccc(Cl)cc1`, the inhibition is -3.02%.

Regarding `CCCCSc1nc(-c2ccc(OC)cc2)ccc1C#N`, the inhibition is -4.97%.

In the case of `Cc1ccc(-c2nc(-c3cc4c([nH]c3=O)CC(C)(C)CC4=O)sc2C)cc1`, the inhibition was -17.3%.

Turning to `COC(=O)c1ccccc1NC(=O)Cn1c(CCC(=O)O)ccc1-c1cccs1`, the inhibition was determined as 1.43%.

As for `CC(=O)Nc1ccc(/C=C/c2nc(-c3ccccc3O)n(-c3ccccc3)n2)cc1`, the inhibition stood at 0.172%.

As to `Cn1c(=O)oc2cc(S(=O)(=O)N3CCCC(C(=O)NCCc4ccc(Cl)cc4)C3)ccc21` (configuration not stated), the inhibition is -3.56%.

Consider `COc1ccccc1CNS(=O)(=O)c1ccc2c(c1)NC(=O)C(C)C(=O)N2` (configuration not stated), for which the inhibition came to 6.21%.

For `CCOc1ccc(Br)cc1S(=O)(=O)N1CCCC1`, the inhibition was active: 53.6%.

In the case of `Cc1ccc2occ(CC(=O)N(Cc3ccccc3Cl)C3CCS(=O)(=O)C3)c2c1` (configuration not stated), the inhibition is -1.29%.

Consider `OCCC1CN(Cc2cc(F)ccc2F)CCN1CCCc1ccccc1` (configuration not stated), for which the inhibition was active: 83.2%.

`O=C(CSc1oc(-c2ccccc2)nc1S(=O)(=O)c1ccc(Cl)cc1)Nc1ccc(F)cc1`: the inhibition was -6.06%.

As to `CC1CCC(Nc2nc3c(-c4ccc(Cl)cc4)nnn3c3ccccc23)CC1` (configuration not stated), the inhibition was 4.75%.

With `Cc1ccc(Cn2cc(CCC(=O)NC3CCC(C)CC3)c3ccccc32)cc1` (configuration not stated), the inhibition is 7.58%.

For the molecule `N#Cc1c[nH]n2c(NC3CCCCC3)c(-c3ccccc3F)nc12`, the inhibition was found to be 15.1%.

In the case of `Cc1c(-c2nsc(NC(=O)c3cccs3)n2)nnn1-c1ccc(Cl)cc1`, the inhibition turned out to be 4.9%.

In the case of `O=C(C1CCN(S(=O)(=O)c2cccs2)CC1)N1CCN(c2cccc(Cl)c2)CC1`, the inhibition amounted to 25.5%.

Consider `CCSc1ncc(Cl)c(C(=O)N(Cc2ccccc2Cl)C2CCS(=O)(=O)C2)n1` (configuration not stated), for which the inhibition came to 14.4%.

As for `CCN(CC)CCCNC(=O)c1ccc2c(c1)N(Cc1c(F)cccc1Cl)C(=O)c1ccccc1S2`, the inhibition is -21.6%.

Regarding `COC(=O)c1nnn(CC(=O)Nc2cc(F)ccc2F)c1C(=O)OC`, the inhibition is -1.76%.

On to `O=C(NCCc1ccc(Cl)cc1)C(=O)NCC(c1ccco1)S(=O)(=O)c1cccs1` (configuration not stated), for which the inhibition came to 14.3%.

Consider `Cc1cccc(-n2ncc(C(=O)N3CCc4ccccc4C3)c2C2CCN(C(=O)OC(C)(C)C)CC2)c1`, for which the inhibition turned out to be 10.5%.

With `Cc1oc2ccc(O)c(CN3CCCCCC3)c2c1C(=O)Nc1cccc(Cl)c1C`, the inhibition stood at 17.1%.

Regarding `CCOc1ccc(S(=O)(=O)N2CCC(N3CCN(Cc4ccc(F)cc4)C(=O)C3=O)CC2)cc1`, the inhibition was -1.5%.

With `CC(=O)c1cccc(NCc2ccccc2-c2nnc(-c3ccccc3)o2)c1`, the inhibition was -2.14%.

For `Cc1cccc(NC(=O)CSc2nnc(N)s2)c1`, the inhibition was determined as 7.76%.

Regarding `O=C(NC1(C(F)(F)F)NC(=O)N(CCc2ccccc2)C1=O)c1ccccc1Cl` (configuration not stated), the inhibition stood at 22.3%.

With `Cc1nc(-n2nc(C)c(Cc3ccccc3Cl)c2C)sc1C(=O)N1CCC(C)CC1`, the inhibition is -8.65%.

As to `O=C(CCn1cccn1)NCc1ccc(Cl)cc1`, the inhibition was determined as 5.87%.

As to `CCOC(=O)C(CC)Sc1ncnc2sc3c(c12)CCCC3` (configuration not stated), the inhibition was 2.32%.

In the case of `Cc1ccc(OCCSc2nc3ccc(NC(=O)c4ccc5c(c4)OCO5)cc3s2)cc1`, the inhibition is -23.8%.

Regarding `O=C(Nc1ccc(F)cc1)C1CCN(c2nc3ccccc3n3cccc23)CC1`, the inhibition is 19.8%.

As for `CCOC(=O)C1CCCN(C(=O)c2c(C)nn(-c3ccc(F)cc3)c2-n2cccc2)C1` (configuration not stated), the inhibition was -4.05%.
